# Values quoted from earlier work as cited in publication PMC11006913.
# The list shows a part of the results.
# Columns and labels:
# [1] = target: PROP1 R112Q (Homo sapiens) (UniProt O75360); conditions: PBM; conditions not shown; double strand, one strand shown; scale: upbm affinity estimate (log intensity, higher = more binding, comparable within an allelic series)
# [2] = target: PROP1 R99Q (Homo sapiens) (UniProt O75360); conditions: PBM; conditions not shown; double strand, one strand shown; scale: upbm affinity estimate (log intensity, higher = more binding, comparable within an allelic series)
Sequence,binding signal [1],binding signal [2]
GCCCCAGC [8-mer GCCCCAGC],10.8,10.9
CGCAGGAC [8-mer CGCAGGAC],11,11
AAATTATC [8-mer AAATTATC],12.3,11.8
CGCAAGCG [8-mer CGCAAGCG],10.9,11
AGCGCTTG [8-mer AGCGCTTG],10.9,11.1
GCCCGAGC [8-mer GCCCGAGC],10.9,10.8
CCCCCGTA [8-mer CCCCCGTA],10.9,10.9
CCCTTGCG [8-mer CCCTTGCG],10.8,10.9
CTGGCGCA [8-mer CTGGCGCA],11.1,11.1
CGACGGCC [8-mer CGACGGCC],10.9,10.9
CCAAGGGG [8-mer CCAAGGGG],10.8,11
AGCGCCGG [8-mer AGCGCCGG],10.9,11
CCCCTCGC [8-mer CCCCTCGC],10.9,10.9
GGAGCCGA [8-mer GGAGCCGA],10.9,10.9
CCAAAAGC [8-mer CCAAAAGC],10.9,10.9
CCAGCCGC [8-mer CCAGCCGC],10.9,10.9
CGGCTCCC [8-mer CGGCTCCC],10.9,11
CCCGAGGG [8-mer CCCGAGGG],10.7,10.8
CCCGTCGG [8-mer CCCGTCGG],10.9,10.9
GGCAGGCC [8-mer GGCAGGCC],10.8,10.8
CGGCGGGC [8-mer CGGCGGGC],10.8,11

Sequence,binding signal [1],binding signal [2]
AGGGCAGG [8-mer AGGGCAGG],11,11
GAGGCGAC [8-mer GAGGCGAC],11,11
CGGGCCTC [8-mer CGGGCCTC],10.8,10.8
CGCCCGCC [8-mer CGCCCGCC],10.6,10.9
CTCGCGCC [8-mer CTCGCGCC],10.9,10.9
CGCACGCC [8-mer CGCACGCC],10.8,10.8
GCGGTGCC [8-mer GCGGTGCC],10.9,10.9
AGCGAGCG [8-mer AGCGAGCG],11,10.9
CAGCCCCG [8-mer CAGCCCCG],10.9,11
AATGCAAT [8-mer AATGCAAT],12,11.6
GCCTCCAC [8-mer GCCTCCAC],10.9,10.9
GCCCACGA [8-mer GCCCACGA],10.9,10.9
GGCCCACC [8-mer GGCCCACC],10.9,10.9
CGGCGTGC [8-mer CGGCGTGC],10.8,10.9
AATCAAAT [8-mer AATCAAAT],12.4,11.8
AGGGGTTC [8-mer AGGGGTTC],10.8,10.9
CTCCGGAG [8-mer CTCCGGAG],11.1,11.1
CCGCAAGG [8-mer CCGCAAGG],10.9,11
AATTTAAT [8-mer AATTTAAT],12.5,11.9
CCCTTCCG [8-mer CCCTTCCG],10.9,10.9
CCCGTGCC [8-mer CCCGTGCC],10.9,10.8

Sequence,binding signal [1],binding signal [2]
AATTGAAT [8-mer AATTGAAT],12.5,12
CCAGGCGA [8-mer CCAGGCGA],10.8,10.8
CATAACTA [8-mer CATAACTA],11.8,11.6
TGGGGGAA [8-mer TGGGGGAA],10.9,11
AGGACCGC [8-mer AGGACCGC],11,11
CGCGGGGC [8-mer CGCGGGGC],10.8,10.8
CGCTCTCC [8-mer CGCTCTCC],10.9,10.8
AGGTCCCC [8-mer AGGTCCCC],10.8,10.9
GCGACGAC [8-mer GCGACGAC],10.8,10.9
GGTAATCA [8-mer GGTAATCA],12.3,11.8
GAGTTAAA [8-mer GAGTTAAA],–,11.3
GCGCCGGA [8-mer GCGCCGGA],10.8,10.9
CGAGCAAG [8-mer CGAGCAAG],10.9,11
AAGCCCGG [8-mer AAGCCCGG],11,11
CTGCCGCC [8-mer CTGCCGCC],11,10.9
TAATTTGA [8-mer TAATTTGA],12.5,11.8
ACCCCCCC [8-mer ACCCCCCC],10.8,10.9
ACCCGCGT [8-mer ACCCGCGT],10.8,10.8
CCCCTTCG [8-mer CCCCTTCG],10.9,10.8
CTCGGCCC [8-mer CTCGGCCC],10.8,10.8
